The source gives no read counts; variants with many changes may rest on few reads.
B1: LINE1-mini (parent)
chain: GGCAGAGCUCAACACAGCGUGGCAAAGUGGCUGUGGCUAGACUGCC

Variants of: B1
Assay: self-cleavage, relative activity (ratio to wild type); higher = more cleavage; in vitro, sequencing; the parent is a self-cleaving ribozyme

| Variant | self-cleavage |
| --- | --- |
| G1U C3U G19A U28C C42A | 0.05 |
| G1U A16U U20G A24U G29U G30U | 0.03 |
| G1U C8G A41G | 0.08 |
| G1C C3A C31A U34C A39C C42G | 0.03 |
| G1U A12G U28C | 0.06 |
| G1C C8U U9A A41G | 0.03 |
| G1U C3G G5A A12G C13G G29C G35U G44U | 0.01 |
| G1U A4C G7A C23A G30U C37U | 0.07 |
| G1C G19C G33U | 0.04 |
| G1C U9A A12G U20C | 0 |
| G1C C23U G44U | 0.04 |
| G1C C10G G33U C45U | 0 |
| G1U C3A C10U A12G | 0.05 |
| G1U A6U U32A | 0.04 |
| G1U A4U C8U | 0.38 |
| G1U A12U A41C | 0.03 |
| G1U C3G G29U | 0.1 |
| G1U C8U U9A U20G C23U C45A | 0.17 |
| G1C G29C G30C U43G | 0.06 |
| G1C G7C G35A | 0.02 |
| G1U C10U A11C G22A C45G | 0.01 |
| G1C G5U A6C C10A | 0 |
| G1C C15G G22C G40U | 0.01 |
| G1C G2U C10G G17C C18A C31A | 0.01 |

| Variant | self-cleavage |
| --- | --- |
| G1U A11G C15U A24U G40U C46G | 0 |
| G1U A4C U20A C23G G30A U32C | 0.1 |
| G1C G17U G40A | 0 |
| G1U A6G A11G A16G G29C | 0.01 |
| G1C G19A G27U U34C G35A | 0.01 |
| G1U A11C A14U U20G U34G G40U U43A | 0 |
| G1U A11C C31U | 0 |
| G1C G2U G5C G35U C42G | 0.03 |
| G1U C3U A11C A14U A25C G44A C46A | 0 |
| G1U A6C U9G | 0.01 |
| G1C C23U A39C G40U | 0.04 |
| G1C C10G A41C G44U | 0 |
| G1U A14U C18G | 0.09 |
| G1C U9A U20C | 0.01 |
| G1C G2A A16U C37G U38C | 0.01 |
| G1C G7U C10G U32A | 0.04 |
| G1U A4G C10U C13G G17U G19A U43A | 0.02 |
| G1U A12U G27A U28C U34A C37U | 0.01 |
| G1C C8A G17C A25G U28G C42U C46U | 0.01 |
| G1C G2A A26U | 0.19 |
| G1U A4U U9C | 0.07 |
| G1U A4C A39U | 0.02 |
| G1U A11U A39C G44A | 0.01 |
| G1C C15U A25U G40U | 0.02 |

| Variant | self-cleavage |
| --- | --- |
| G1C C13U U32A | 0 |
| G1U C8A A11G G19A A26C G40A | 0.01 |
| G1C G17A A24G U38G A39U | 0.01 |
| G1C A25G G33U | 0.02 |
| G1U A4G G29U | 0.78 |
| G1U A11C A39G A41G | 0.01 |
| G1U A4U C31G | 0.05 |
| G1C C10U G22A | 0.07 |
| G1U C3G A4G U20A G44A | 0.02 |
| G1C C3G G30C C31A A41C | 0.04 |
| G1C C23U C42A | 0.04 |
| G1C C10A C37G A41U | 0.01 |
| G1U A12U C37A G44C | 0 |
| G1U C10G C13U G35C | 0.01 |
| G1U C3A G7U U43A C46G | 0.83 |
| G1C C18U G19A | 0.06 |
| G1U A26G G40U | 0.05 |
| G1U A11U C23U A39U G44A | 0.01 |
| G1C G2U G29U | 0.22 |
| G1C G33C G44C | 0.01 |
| G1C G2A G40C | 0.04 |
| G1U C8U G35A | 0.06 |
| G1C G7C A16U | 0.01 |
| G1C C10A C15G | 0.01 |

| Variant | self-cleavage |
| --- | --- |
| G1C G22C G29C C31A C42A | 0.01 |
| G1U A4C G35A C37A | 0.02 |
| G1U C8G C10U G27U | 0.07 |
| G1U A24G C31U G33C C42A | 0.02 |
| G1C G5C C18G C46G | 0.02 |
| G1C C15G G17U | 0.01 |
| G1U A4C C15U C18U C37U | 0.02 |
| G1C C31G G36U | 0.02 |
| G1U A4U G30C | 0.01 |
| G1U A11G A24C | 0.02 |
| G1C U20C G22A G33A | 0.02 |
| G1C U20C A24G G29A G33A | 0.02 |
| G1C C15G C18G C31U C37G | 0 |
| G1U C3A G22A U28C | 0.14 |
| G1C G5A C23U | 0.04 |
| G1U A4C A6G G17A | 0.08 |
| G1U C8A G40A | 0.06 |
| G1C G33U C42G C46A | 0.02 |
| G1U A6C G29A | 0.1 |
| G1U A6C U28G | 0.48 |
| G1U C8U A16C | 0.06 |
| G1U C8U C13U C15G G40A U43G | 0.23 |
| G1C G5U C13U C18A C31U | 0.01 |
| G1U A4U G5U A26G | 0.02 |

| Variant | self-cleavage |
| --- | --- |
| G1U A11C A14U G29A C37A | 0 |
| G1U A16G C45U | 0.07 |
| G1C A25G C31U U34G | 0.03 |
| G1U C3U G7C G17U U43A | 0.17 |
| G1U A11U G27U | 0.03 |
| G1C G5U C18A G30C C31G | 0 |
| G1U C8U A16G G30C A39C | 0.09 |
| G1C C3A G21A | 0.39 |
| G1C U9A C13U C37A | 0 |
| G1C G27A U38C | 0.03 |
| G1C G17A C23A G29U U32G G36C C45A | 0.02 |
| G1C G2U C23A U28G | 0.07 |
| G1U A16U C23G U43A | 0.03 |
| G1C C10A G17C C42U | 0.02 |
| G1U C3A A24C G29U C42G | 0.21 |
| G1C C8U A14U G17A C31A | 0.04 |
| G1U A6G A11C G35A | 0.02 |
| G1C C15A A16G C18A | 0.01 |
| G1C C15A A26C G30U G40A | 0.01 |
| G1U A14U A24U G30U C42U | 0.04 |
| G1U A4G G5A C10G A12G G21U U28G G44U | 0.01 |
| G1U A11G G21C A26U C31U G36C | 0 |
| G1C A26G G36U | 0.01 |
| G1U A12C A41U | 0.01 |

| Variant | self-cleavage |
| --- | --- |
| G1C G5U A6U C10A | 0 |
| G1U A6C G17A G22U G36U C46A | 0.02 |
| G1C C15A C31U A41U C46U | 0 |
| G1C C8A G29U G30C G44U | 0.02 |
| G1C C8G A25G G27C G30U A39U G44U | 0 |
| G1C G2A G19U C42U | 0.01 |
| G1C G7A C37A | 0.01 |
| G1U A11U G40U | 0.04 |
| G1C C13A G17A A26G | 0.02 |
| G1C C10A C18U U34A | 0.01 |
| G1U C8A C10A A25G C45U | 0 |
| G1U A24C A26G C42A | 0.06 |
| G1U C8A G35C C45U | 0.05 |
| G1C G30U G33A G35U | 0.01 |
| G1C G7U G36U | 0.03 |
| G1C C8G C15U G40A | 0.03 |
| G1C A41G C46A | 0.05 |
| G1C C10G G22A | 0.02 |
| G1U C10G G22U G36U C37G | 0.02 |
| G1U A12C A24G G33U | 0.02 |
| G1C C15A G40C G44A | 0.02 |
| G1U A6G C8U U9C | 0 |
| G1C G36C A39G U43A G44A | 0.01 |
| G1U C3U C13U C18U A41G | 0.22 |

| Variant | self-cleavage |
| --- | --- |
| G1U A6U C8G A16C C23U U28G U34G | 0.04 |
| G1C C23G U32C G33A | 0.01 |
| G1C C3A A6G A11G G22U C42U | 0.01 |
| G1U A24U A25U G33U U38G | 0.03 |
| G1U A6U G30U U38G G40C | 0.02 |
| G1U A14U A25G | 0.01 |
| G1C G5C U28C G33A | 0.02 |
| G1C A24U G27A | 0.2 |
| G1U C8A G36A C45A | 0.31 |
| G1U C3G C18G C31A | 0.06 |
| G1C C3U C13U G21U G27C C46G | 0.06 |
| G1U A11G C42A U43C | 0 |
| G1C C23U G30C | 0.48 |
| G1C A16U G44A | 0.01 |
| G1C C8G A11C G17A G21A | 0.02 |
| G1C G2C G36U | 0.03 |
| G1C G2C A12U C23G | 0 |
| G1C U28A C31G | 0.04 |
| G1C U9C C15A G19C A26U G40A A41G | 0 |
| G1C G7C C8A A25U A26G | 0.01 |
| G1U C8U C18U | 0.07 |
| G1C A25U U28A G40C | 0.02 |
| G1U C10A G19C G22U | 0.03 |

Source: the RNAGym collection of RNA variant scans (doi:10.7554/elife.90254)
